Drawing on patent US6706740B2, “Fungicidal heterocyclic aromatic amides and their compositions, methods of use and preparation” (Dow AgroSciences LLC, priority 1999, dated 2004), this text covers pest or weed control for 62 compounds.

The first assay relates to Plasmopara viticola—PLASVI. The experiment in a line: whole plant or invertebrate. The assay is classed as in vivo. Conditions: Plasmopara, 24 h, read-out: PLASVI in vivo 1 Day Protectant, 100 ppm, 24 hour protectant, grape; control of fungal infection vs untreated plants.
In the case of `COc1ccnc(C(=O)NC2CC(C)(C)C(Oc3cc(C(F)(F)F)cc(C(F)(F)F)n3)C(C)(C)C2)c1O` (centres unmarked) [Compound 272], the pest or weed control at 100 ppm was < 25%.
Still for that read-out and setting: the same measure for `COc1ccnc(C(=O)N[C@@H]2CC3CC2[C@@H](C(=O)OCCc2ccccc2)[C@H]3C(=O)OCC(C)C)c1O` (some centres unmarked) [Compound 301]: < 25%; for `COc1ccnc(C(=O)NC2CCN(Cc3ccc(C)cc3)CC2)c1O` [Compound 306]: 25 to 74%.
Still for that read-out and setting: in the case of `O=C(NC1CCC(O)CC1)c1ncccc1O` (centres unmarked) [Compound 208] it was < 25%.
The same measure, in the same setting: the same measure for `CC(=O)OC1CCC(NC(=O)c2ncccc2O)CC1` (centres unmarked) [Compound 209]: < 25%.
For the compound `O=C(NCc1cccc2ccccc12)c1ncccc1O` [Compound 228], the pest or weed control at 100 ppm is < 25%.
On the same count and under the same terms, in the case of `C[C@H]1C2CC([C@H]3CCC[C@@H]23)[C@@H]1NC(=O)c1ncccc1O` (some centres unmarked) [Compound 207] it was < 25%; in that of `COc1ccnc(C(=O)N[C@@H]2CC3CC2[C@H]2COC[C@@H]32)c1O` (some centres unmarked) [Compound 302], 25 to 74%.
The same measure, in the same setting: the same measure for `COc1ccnc(C(=O)NC2CC(C)(C)CC(C)(C3CC3)C2)c1O` (centres unmarked) [Compound 252]: < 25%; for `COc1ccnc(C(=O)N[C@@H]2CC(C)(C)C[C@](C)(C(=O)N(C)CCc3ccccc3)C2)c1O` [Compound 262]: 25 to 74%.
The same measure, in the same setting: in the case of `Cc1cc(C)cc(NC(=O)c2ncccc2O)c1` [Compound 215] it was < 25%.
Take `O=C(Nc1nccs1)c1ncccc1O` [Compound 235]: the pest or weed control at 100 ppm is < 25%.
Same read-out and setting: the same measure for `O=C(Nc1ccc(Oc2ccc(C(F)(F)F)cc2)cc1)c1ncccc1O` [Compound 217]: < 25%; for `O=C(OC1CCC(NC(=O)c2ncccc2O)CC1)c1ccccc1` (centres unmarked) [Compound 211]: < 25%; for `COc1ccnc(C(=O)N[C@H]2CO[C@@H](C(C)Cc3ccc(C(C)(C)C)cc3)OC2)c1O` (some centres unmarked) [Compound 317]: 25 to 74%.
On the same count and under the same terms, in the case of `COc1ccnc(C(=O)NC2CCN(C(=O)c3ccccc3)CC2)c1O` [Compound 308] it was 25 to 74%; in that of `COc1ccnc(C(=O)NCC2C(C=C(C)C)C2(C)C)c1O` (centres unmarked) [Compound 241], 25 to 74%; in that of `COc1ccnc(C(=O)NC2CC(C)(C)C3OC3[C@H](C)[C@H]2C)c1O` (some centres unmarked) [Compound 280], 25 to 74%.
Still for that read-out and setting: in the case of `COc1ccnc(C(=O)N[C@@H]2CCCC[C@H]2SC)c1O` [Compound 273] it was 25 to 74%.

The assay is the same for the next values; noted with them: Plasmopara, 24 h, read-out: PLASVI in vivo 1 Day Protectant, 100 ppm, grape, 24 hour protectant, % control of fungal infection vs untreated plants.
Regarding `CCCCCCC(=O)Oc1c(OC)ccnc1C(=O)N[C@H]1COC(=O)[C@H](Cc2ccccc2)[C@@H](OC(=O)C(C)C)[C@H](C)OC1=O` [Compound 613], the pest or weed control at 100 ppm was < 25%.
Same read-out and setting: in the case of `COc1ccnc(C(=O)Nc2ccc(C(=O)Oc3cccc(C(F)(F)F)c3)cc2)c1OC(C)=O` [Compound 715] it was 25 to 74%; in that of `COc1ccnc(C(=O)N[C@H]2COC(=O)[C@H](Cc3ccccc3)[C@@H](OC(=O)C(C)C)[C@H](C)OC2=O)c1OC(=O)C(C)C` [Compound 602], < 25%.
The same measure, in the same setting: the same measure for `COc1ccnc(C(=O)N[C@H]2COC(=O)[C@H](Cc3ccccc3)[C@@H](OC(=O)C(C)C)[C@H](C)OC2=O)c1OC(=O)c1ccc(Cl)nc1` [Compound 669]: < 25%; for `COc1ccnc(C(=O)N[C@H]2COC(=O)[C@H](Cc3ccccc3)[C@@H](OC(=O)C(C)C)[C@H](C)OC2=O)c1OC(=O)C(C)(C)C` [Compound 605]: < 25%; for `COc1ccnc(C(=O)N[C@H]2COC(=O)[C@H](Cc3ccccc3)[C@@H](OC(=O)C(C)C)[C@H](C)OC2=O)c1OC(=O)C1CC1` [Compound 601]: 25 to 74%.

Staying with this assay, now noted: Plasmopara, 24 h, read-out: PLASVI in vivo 1 Day Protectant, 100 ppm, grape, 24 hour protectant; control of fungal infection vs untreated plants.
In the case of `COc1ccnc(C(=O)Nc2ccc(Oc3ccccc3C#N)cc2)c1O` [Compound 420], the pest or weed control at 100 ppm is < 25%.
Same read-out and setting: the same measure for `COc1ccnc(C(=O)NC(COC(=O)C(C)Cc2ccccc2)C(=O)OC(C)C)c1O` (centres unmarked) [Compound 351]: 25 to 74%; for `COc1ccnc(C(=O)Nc2ccccc2Oc2cccc(Cl)c2)c1O` [Compound 437]: < 25%; for `COc1ccnc(C(=O)N[C@@H]2OC[C@@H](OC(C)=O)[C@H](OC(C)=O)[C@H]2OC(C)=O)c1O` [Compound 330]: 25 to 74%.
The same measure, in the same setting: in the case of `COc1ccnc(C(=O)N[C@H]2COC(=O)[C@H](Oc3ccccc3)[C@@H](OC(=O)C(C)C)[C@H](C)OC2=O)c1O` [Compound 403] it was < 25%; in that of `COc1ccnc(C(=O)Nc2ccc(OC3CC(C)(C)OC(C)(C)C3)cc2)c1O` [Compound 459], < 25%; in that of `COc1ccnc(C(=O)N[C@H]2COC(=O)[C@H](Cc3ccccc3)[C@@H](OC(C)=O)[C@H](C)OC2=O)c1O` [Compound 385], < 25%.
On the same count and under the same terms, the same measure for `COC(=O)C(COC(=O)CCc1ccccc1)NC(=O)c1nccc(OC)c1O` (centres unmarked) [Compound 344]: < 25%.
As to `COc1ccnc(C(=O)Nc2ccc(NC(=O)c3cccc(C(F)(F)F)c3)cc2)c1O` [Compound 453], the pest or weed control at 100 ppm was < 25%.
The same measure, in the same setting: in the case of `COc1ccnc(C(=O)N[C@@H](Cc2ccc(OCc3ccccc3)cc2)C(=O)O)c1O` [Compound 337] it was < 25%; in that of `COc1ccnc(C(=O)NC(COC(=O)C(Cc2ccccc2)C(C)OC(=O)c2ccccc2)C(=O)OC(C)C)c1O` (centres unmarked) [Compound 356], 25 to 74%.
Still for that read-out and setting: in the case of `COc1ccnc(C(=O)Nc2ccc(Cc3cccc(C(F)(F)F)c3)cc2)c1O` [Compound 404] it was 25 to 74%; in that of `COc1ccccc1Oc1ccc(NC(=O)c2nccc(OC)c2O)cc1` [Compound 433], < 25%.
Still for that read-out and setting: the same measure for `COc1ccnc(C(=O)N[C@@H](Cc2ccc(OCc3ccccc3)cc2)C(=O)OCc2ccccc2)c1O` [Compound 339]: < 25%; for `COc1ccnc(C(=O)N[C@H]2COC(=O)[C@H](Cc3ccccc3)[C@@H](OC(=O)C3C(C)CCCC3C)[C@H](C)OC2=O)c1O` (some centres unmarked) [Compound 393]: < 25%; for `COc1ccnc(C(=O)N[C@H]2COC(=O)[C@H](Cc3ccccc3)[C@@H](OCC(C)C)[C@H](C)OC2=O)c1O` [Compound 384]: < 25%.
Regarding `COc1ccnc(C(=O)N[C@H]2COC(=O)[C@H](Cc3ccccc3)[C@@H](OC(=O)C(C)(C)C)[C@H](C)OC2=O)c1O` [Compound 388], the pest or weed control at 100 ppm is < 25%.
The same measure, in the same setting: the same measure for `COc1ccnc(C(=O)Nc2ccc(C(=O)Nc3cccc(C(F)(F)F)c3)cc2)c1O` [Compound 449]: < 25%.
Still for that read-out and setting: the same measure for `COc1ccnc(C(=O)N[C@H]2O[C@@H](C)[C@@H](OC(C)=O)[C@@H](OC(C)=O)[C@@H]2OC(C)=O)c1O` [Compound 333]: < 25%.

Staying with this assay, now noted: Plasmopara, 24 h, read-out: PLASVI in vivo 1 Day Protectant, grape plants, 100 ppm, 24 hour protectant; control of fungal infection vs untreated plants.
As for `CC(=O)Oc1cccnc1C(=O)Nc1ccc(Oc2cccc(C(F)(F)F)c2)cc1` [Compound 570], the pest or weed control at 100 ppm was < 25%.
Still for that read-out and setting: in the case of `CSc1nnc(C(=O)NC2CC(C)(C)CC(C)(C)C2)c(O)n1` [Compound 545] it was 25 to 74%.
As to `O=C(NC1CCCCC1)c1cccnc1O` [Compound 515], the pest or weed control at 100 ppm lay in the range of 25 to 74%.
Still for that read-out and setting: the same measure for `COc1cccc(CNC(=O)c2cccnc2O)c1OC` [Compound 516]: 25 to 74%.
Still for that read-out and setting: the same measure for `Cc1nc(O)c(C(=O)N[C@H]2COC(=O)[C@H](Cc3ccccc3)[C@@H](OC(=O)C(C)C)[C@H](C)OC2=O)nc1C` [Compound 536]: < 25%.
Still for that read-out and setting: in the case of `O=C(Nc1ccc(Oc2ccccc2)cc1)c1cccnc1O` [Compound 522] it was < 25%; in that of `Cc1ccc(C(=O)N[C@H]2COC(=O)[C@H](Cc3ccccc3)[C@@H](OC(=O)C(C)C)[C@H](C)OC2=O)c(O)n1` [Compound 525], < 25%.
As for `COc1ccnc(C(=O)N[C@@H]2O[C@H](COC(C)=O)[C@H](OC(C)=O)[C@H](OC(C)=O)[C@H]2OC(C)=O)c1OC(C)=O` [Compound 591], the pest or weed control at 100 ppm was in the range of 25 to 74%.
Same read-out and setting: the same measure for `O=C(NCC1CCCc2ccccc21)c1nc(Br)ccc1O` (centres unmarked) [Compound 485]: 25 to 74%; for `O=C(NCc1ccc(Cl)cc1)c1ccncc1O` [Compound 507]: 25 to 74%.
Regarding `COc1ccnc(C(=O)Nc2ccc(Oc3cc(C(F)(F)F)cc(C(F)(F)F)n3)cc2)c1O` [Compound 464], the pest or weed control at 100 ppm was < 25%.
On the same count and under the same terms, in the case of `O=C(NCc1sccc1Cl)c1nc(Br)ccc1O` [Compound 484] it was < 25%; in that of `COc1ccc(O)c(C(=O)NC2COC(=O)[C@H](Cc3ccccc3)[C@@H](OC(=O)C(C)C)[C@H](C)OC2=O)n1` (some centres unmarked) [Compound 481], < 25%; in that of `COC(=O)C(COC(=O)CC(C)OC(=O)C(C)C)NC(=O)c1nccc(OC)c1OC(C)=O` (centres unmarked) [Compound 586], < 25%.
On to `CCOc1ccnc(C(=O)Nc2ccc(Oc3cccc(C(F)(F)F)c3)cc2)c1O` [Compound 476], for which the pest or weed control at 100 ppm was < 25%.
On the same count and under the same terms, in the case of `COC(=O)C(COC(=O)C(C)c1ccccc1)NC(=O)c1nccc(OC)c1OC(C)=O` (centres unmarked) [Compound 581] it was 25 to 74%; in that of `COc1ccnc(C(=O)NC2CC(C)(C)CC(C)(C3CC3)C2)c1OC(C)=O` (centres unmarked) [Compound 573], < 25%.
On the same count and under the same terms, in the case of `Cc1ccnc(C(=O)N[C@H]2COC(=O)[C@H](Cc3ccccc3)[C@@H](OC(=O)C(C)C)[C@H](C)OC2=O)c1OC(=O)C(C)C` [Compound 572] it was < 25%.
